According to patent US9340590B2 (priority 2011, dated 2016):
At least one structure is not confirmed: it was looked up by name or label, or the drawing left a doubt.

Columns and labels:
Assay type in all cases: cell-based
hNav1.3 = hNav1.3 (Homo sapiens, UniProt Q9NY46); conditions: IonWorks Quattro, use-dependent block; read-out: IWQ Use Nav1.3
hNav1.7 = hNav1.7 (Homo sapiens, UniProt Q15858); conditions: IonWorks Quattro, use-dependent block; read-out: IWQ Use Nav1.7
hNav1.5 = hNav1.5 (Homo sapiens, UniProt Q14524); conditions: IonWorks Quattro, use-dependent block; read-out: IWQ Use Nav1.5

hNav1.7, sequence (Q15858 whole entry, looked up): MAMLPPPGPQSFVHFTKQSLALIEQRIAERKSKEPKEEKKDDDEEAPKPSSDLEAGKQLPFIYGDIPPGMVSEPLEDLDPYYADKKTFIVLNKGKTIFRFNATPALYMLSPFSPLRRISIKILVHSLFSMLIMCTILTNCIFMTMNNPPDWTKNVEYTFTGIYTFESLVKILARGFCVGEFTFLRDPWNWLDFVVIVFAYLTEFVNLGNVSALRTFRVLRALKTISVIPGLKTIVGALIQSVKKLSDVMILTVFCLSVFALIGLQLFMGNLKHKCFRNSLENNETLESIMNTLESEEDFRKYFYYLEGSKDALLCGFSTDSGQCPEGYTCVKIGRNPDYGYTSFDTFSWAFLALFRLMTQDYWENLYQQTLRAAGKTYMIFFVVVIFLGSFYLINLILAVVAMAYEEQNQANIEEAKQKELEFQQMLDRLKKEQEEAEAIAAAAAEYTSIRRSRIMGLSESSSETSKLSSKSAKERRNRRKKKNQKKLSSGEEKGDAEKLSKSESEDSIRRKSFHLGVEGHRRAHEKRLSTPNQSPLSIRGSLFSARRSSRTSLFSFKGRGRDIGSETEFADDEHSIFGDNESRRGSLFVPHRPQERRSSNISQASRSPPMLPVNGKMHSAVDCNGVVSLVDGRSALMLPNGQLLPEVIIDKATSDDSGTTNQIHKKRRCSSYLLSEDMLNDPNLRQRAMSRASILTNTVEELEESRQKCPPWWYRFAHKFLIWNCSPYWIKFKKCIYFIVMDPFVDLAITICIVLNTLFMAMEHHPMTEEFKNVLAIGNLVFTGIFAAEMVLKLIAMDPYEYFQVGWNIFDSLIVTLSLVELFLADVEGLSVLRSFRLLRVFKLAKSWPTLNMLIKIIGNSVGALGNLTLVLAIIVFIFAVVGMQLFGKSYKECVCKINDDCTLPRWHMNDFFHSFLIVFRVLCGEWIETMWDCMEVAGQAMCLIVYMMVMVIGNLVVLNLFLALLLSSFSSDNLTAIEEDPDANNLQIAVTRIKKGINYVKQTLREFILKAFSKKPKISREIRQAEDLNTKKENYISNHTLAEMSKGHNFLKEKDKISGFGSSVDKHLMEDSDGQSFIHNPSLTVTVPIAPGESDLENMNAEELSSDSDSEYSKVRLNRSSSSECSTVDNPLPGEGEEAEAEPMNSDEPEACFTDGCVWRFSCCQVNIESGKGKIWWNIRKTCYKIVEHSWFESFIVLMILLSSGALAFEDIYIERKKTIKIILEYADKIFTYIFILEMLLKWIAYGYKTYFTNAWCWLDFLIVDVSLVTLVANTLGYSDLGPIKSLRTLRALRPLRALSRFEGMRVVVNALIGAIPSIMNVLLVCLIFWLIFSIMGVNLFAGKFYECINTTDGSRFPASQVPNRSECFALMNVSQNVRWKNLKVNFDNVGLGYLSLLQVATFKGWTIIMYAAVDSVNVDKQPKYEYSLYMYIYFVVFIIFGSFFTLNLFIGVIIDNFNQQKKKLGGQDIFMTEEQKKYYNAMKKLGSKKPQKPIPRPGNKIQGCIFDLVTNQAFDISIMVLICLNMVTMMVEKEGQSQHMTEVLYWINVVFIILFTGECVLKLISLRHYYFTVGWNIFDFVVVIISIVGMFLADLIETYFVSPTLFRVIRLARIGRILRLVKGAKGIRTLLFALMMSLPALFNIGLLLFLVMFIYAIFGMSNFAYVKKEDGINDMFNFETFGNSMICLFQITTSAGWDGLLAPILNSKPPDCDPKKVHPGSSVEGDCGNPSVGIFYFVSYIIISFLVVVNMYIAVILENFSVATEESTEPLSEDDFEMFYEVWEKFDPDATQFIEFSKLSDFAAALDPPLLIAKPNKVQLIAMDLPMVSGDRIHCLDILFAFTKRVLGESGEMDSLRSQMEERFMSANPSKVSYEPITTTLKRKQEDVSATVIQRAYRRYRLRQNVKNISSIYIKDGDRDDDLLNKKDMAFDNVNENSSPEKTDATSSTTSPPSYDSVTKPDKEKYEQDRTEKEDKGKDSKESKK
hNav1.3, sequence (Q9NY46 whole entry, looked up): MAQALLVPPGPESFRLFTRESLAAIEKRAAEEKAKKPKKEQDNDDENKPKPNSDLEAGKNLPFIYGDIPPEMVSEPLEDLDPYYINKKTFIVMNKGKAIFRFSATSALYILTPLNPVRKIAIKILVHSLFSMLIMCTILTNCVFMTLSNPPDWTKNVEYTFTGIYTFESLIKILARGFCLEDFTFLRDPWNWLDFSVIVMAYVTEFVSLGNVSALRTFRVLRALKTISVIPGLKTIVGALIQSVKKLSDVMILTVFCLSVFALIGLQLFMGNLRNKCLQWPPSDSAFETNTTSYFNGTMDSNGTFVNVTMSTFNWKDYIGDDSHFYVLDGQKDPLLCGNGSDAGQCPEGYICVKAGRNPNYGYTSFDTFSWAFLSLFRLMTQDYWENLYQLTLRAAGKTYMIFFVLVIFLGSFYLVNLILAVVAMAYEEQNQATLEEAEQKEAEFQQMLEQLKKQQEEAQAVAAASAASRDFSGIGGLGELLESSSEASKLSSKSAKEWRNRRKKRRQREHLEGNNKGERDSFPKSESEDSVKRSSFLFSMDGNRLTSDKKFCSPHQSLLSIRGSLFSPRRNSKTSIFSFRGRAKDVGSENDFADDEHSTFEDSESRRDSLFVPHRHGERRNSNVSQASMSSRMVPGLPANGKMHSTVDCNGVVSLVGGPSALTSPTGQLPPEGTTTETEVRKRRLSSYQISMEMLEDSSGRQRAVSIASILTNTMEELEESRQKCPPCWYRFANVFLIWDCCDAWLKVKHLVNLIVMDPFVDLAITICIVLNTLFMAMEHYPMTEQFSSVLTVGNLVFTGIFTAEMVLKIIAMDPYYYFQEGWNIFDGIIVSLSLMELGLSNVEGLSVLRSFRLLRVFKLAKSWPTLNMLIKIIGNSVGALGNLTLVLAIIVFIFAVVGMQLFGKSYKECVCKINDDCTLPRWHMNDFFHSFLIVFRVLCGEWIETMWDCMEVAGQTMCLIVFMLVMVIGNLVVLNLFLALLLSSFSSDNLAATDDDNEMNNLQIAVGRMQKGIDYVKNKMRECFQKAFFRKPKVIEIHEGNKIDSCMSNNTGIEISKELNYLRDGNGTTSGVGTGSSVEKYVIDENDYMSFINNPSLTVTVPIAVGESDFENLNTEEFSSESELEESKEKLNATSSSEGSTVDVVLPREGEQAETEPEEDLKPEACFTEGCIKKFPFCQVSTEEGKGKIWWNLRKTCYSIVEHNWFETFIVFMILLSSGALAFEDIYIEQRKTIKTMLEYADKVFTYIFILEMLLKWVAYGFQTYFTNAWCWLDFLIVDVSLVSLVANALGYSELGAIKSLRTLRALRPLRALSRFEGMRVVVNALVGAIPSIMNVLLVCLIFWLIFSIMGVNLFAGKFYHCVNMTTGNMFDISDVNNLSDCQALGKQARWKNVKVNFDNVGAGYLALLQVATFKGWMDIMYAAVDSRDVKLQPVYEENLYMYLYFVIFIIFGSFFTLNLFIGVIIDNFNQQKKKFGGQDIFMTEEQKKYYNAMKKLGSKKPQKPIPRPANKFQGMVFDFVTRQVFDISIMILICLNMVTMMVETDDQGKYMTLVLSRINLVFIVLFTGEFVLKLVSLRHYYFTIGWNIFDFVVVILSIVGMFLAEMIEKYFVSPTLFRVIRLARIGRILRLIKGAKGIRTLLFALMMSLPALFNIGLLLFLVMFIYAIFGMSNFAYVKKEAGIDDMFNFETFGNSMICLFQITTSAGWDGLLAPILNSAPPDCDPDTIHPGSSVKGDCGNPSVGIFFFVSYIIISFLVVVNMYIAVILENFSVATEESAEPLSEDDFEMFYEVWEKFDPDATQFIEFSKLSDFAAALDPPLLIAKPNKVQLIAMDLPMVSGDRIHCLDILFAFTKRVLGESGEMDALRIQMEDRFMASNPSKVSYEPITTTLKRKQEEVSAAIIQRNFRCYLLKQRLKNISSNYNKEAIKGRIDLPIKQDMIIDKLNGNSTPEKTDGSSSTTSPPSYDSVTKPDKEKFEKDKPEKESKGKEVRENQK

Row | SMILES | IC50 (hNav1.3) [nM] | IC50 (hNav1.7) [nM] | IC50 (hNav1.5) [nM]
1 | CC[C@H](C)[C@@H]1NC(=O)[C@@H]2CSSC[C@@H]3NC(=O)[C@H](C(C)C)NC(=O)[C@H](CC(C)C)NC(=O)[C@H](CC(N)=O)NC(=O)[C@@H]4CCCN4C(=O)[C@H](CCCNC(=N)N)NC(=O)[C@H](CSSC[C@H](NC(=O)[C@@H](N)CC(=O)O)C(=O)N[C@@H](CC(C)C)C(=O)NCC(=O)N[C@@H](Cc4ccccc4)C(=O)N[C@@H](Cc4ccccc4)C(=O)N[C@@H](CCCNC(=N)N)C(=O)N[C@@H](CCCCN)C(=O)N2)NC(=O)[C@H](CSSC[C@@H](C(=O)N[C@@H](CCCCN)C(=O)N[C@@H](Cc2ccc(O)cc2)C(=O)N[C@H](C(=O)N[C@@H](Cc2ccccc2)C(N)=O)C(C)C)NC(=O)[C@H](Cc2c[nH]c4ccccc24)NC(=O)[C@H](CCCCN)NC(=O)[C@H](Cc2c[nH]cn2)NC(=O)[C@H]([C@@H](C)O)NC(=O)[C@H](CCCNC(=N)N)NC(=O)[C@H](CO)NC3=O)NC(=O)[C@H](CCCCN)NC(=O)[C@H](CC(=O)O)NC(=O)[C@H](CC(N)=O)NC(=O)[C@H](CC(=O)O)NC(=O)[C@H](Cc2cn(CCOCCOCCOCCOCCOCCOCCOCCOCCOCCOCCN)nn2)NC1=O [compound 537] | 56 | 136 | 8020
2 | CC(C)C[C@@H]1NC(=O)[C@@H](NC(=O)[C@@H](N)CC(=O)O)CSSC[C@@H]2NC(=O)[C@@H]3CSSC[C@@H](C(=O)N[C@@H](CCCCN)C(=O)N[C@@H](Cc4ccc(O)cc4)C(=O)N[C@H](C(=O)N[C@@H](Cc4ccccc4)C(N)=O)C(C)C)NC(=O)[C@H](Cc4c[nH]c5ccccc45)NC(=O)[C@H](CCCCN)NC(=O)[C@H](Cc4c[nH]cn4)NC(=O)[C@H]([C@@H](C)O)NC(=O)[C@H](CCCNC(=N)N)NC(=O)[C@H](CO)NC(=O)[C@H](CSSC[C@H](NC(=O)[C@H](CCCCN)NC(=O)[C@H](CCCNC(=N)N)NC(=O)[C@H](Cc4ccccc4)NC(=O)[C@H](Cc4ccccc4)NC(=O)CNC1=O)C(=O)N[C@@H](Cc1cn(CCOCCOCCOCCOCCOCCOCCOCCOCCOCCOCCN)nn1)C(=O)N1CCC[C@H]1C(=O)N[C@@H](CC(=O)O)C(=O)N[C@@H](CC(N)=O)C(=O)N[C@@H](CC(=O)O)C(=O)N[C@@H](CCCCN)C(=O)N3)NC(=O)[C@H](C(C)C)NC(=O)[C@H](CC(C)C)NC(=O)[C@H](CC(N)=O)NC(=O)[C@@H]1CCCN1C(=O)[C@H](CCCNC(=N)N)NC2=O [compound 536] | 13 | 39 | 7950
3 | CC[C@H](C)[C@@H]1NC(=O)[C@@H]2CSSC[C@@H]3NC(=O)[C@H](C(C)C)NC(=O)[C@H](Cc4cn(CCOCCOCCOCCOCCOCCOCCOCCOCCOCCOCCN)nn4)NC(=O)[C@H](CC(N)=O)NC(=O)[C@@H]4CCCN4C(=O)[C@H](CCCNC(=N)N)NC(=O)[C@H](CSSC[C@H](NC(=O)[C@@H](N)CC(=O)O)C(=O)N[C@@H](CC(C)C)C(=O)NCC(=O)N[C@@H](Cc4ccccc4)C(=O)N[C@@H](Cc4ccccc4)C(=O)N[C@@H](CCCNC(=N)N)C(=O)N[C@@H](CCCCN)C(=O)N2)NC(=O)[C@H](CSSC[C@@H](C(=O)N[C@@H](CCCCN)C(=O)N[C@@H](Cc2ccc(O)cc2)C(=O)N[C@H](C(=O)N[C@@H](Cc2ccccc2)C(N)=O)C(C)C)NC(=O)[C@H](Cc2c[nH]c4ccccc24)NC(=O)[C@H](CCCCN)NC(=O)[C@H](Cc2c[nH]cn2)NC(=O)[C@H]([C@@H](C)O)NC(=O)[C@H](CCCNC(=N)N)NC(=O)[C@H](CO)NC3=O)NC(=O)[C@H](CCCCN)NC(=O)[C@H](CC(=O)O)NC(=O)[C@H](CC(N)=O)NC(=O)[C@H](CC(=O)O)NC(=O)[C@@H]2CCCN2C1=O [compound 540] | 587 | 763 | 11400
4 | CC[C@H](C)[C@@H]1NC(=O)[C@@H]2CSSC[C@@H]3NC(=O)[C@H](C(C)C)NC(=O)[C@H](CC(C)C)NC(=O)[C@H](CC(N)=O)NC(=O)[C@@H]4CCCN4C(=O)[C@H](CCCNC(=N)N)NC(=O)[C@H](CSSC[C@H](NC(=O)[C@@H](N)CC(=O)O)C(=O)N[C@@H](CC(C)C)C(=O)NCC(=O)N[C@@H](Cc4ccccc4)C(=O)N[C@@H](Cc4ccccc4)C(=O)N[C@@H](CCCNC(=N)N)C(=O)N[C@@H](CCCCN)C(=O)N2)NC(=O)[C@H](CSSC[C@@H](C(=O)N[C@@H](CCCCN)C(=O)N[C@@H](Cc2ccc(O)cc2)C(=O)N[C@H](C(=O)N[C@@H](Cc2cccc4ccccc24)C(N)=O)C(C)C)NC(=O)[C@H](Cc2cn(CCOCCOCCOCCOCCOCCOCCOCCOCCOCCOCCN)nn2)NC(=O)[C@H](CCCCN)NC(=O)[C@H](Cc2c[nH]cn2)NC(=O)[C@H]([C@@H](C)O)NC(=O)[C@H](CCCNC(=N)N)NC(=O)[C@H](CO)NC3=O)NC(=O)[C@H](CCCCN)NC(=O)[C@H](CC(=O)O)NC(=O)[C@H](CC(N)=O)NC(=O)[C@H](CC(=O)O)NC(=O)[C@@H]2CCCN2C1=O [compound 558] | 140 | 93 | > 5000
5 | CC[C@H](C)[C@@H]1NC(=O)[C@@H]2CSSC[C@@H]3NC(=O)[C@H](C(C)C)NC(=O)[C@H](CC(C)C)NC(=O)[C@H](CC(N)=O)NC(=O)[C@@H]4CCCN4C(=O)[C@H](CCCNC(=N)N)NC(=O)[C@H](CSSC[C@H](NC(=O)[C@@H](N)CC(=O)O)C(=O)N[C@@H](CC(C)C)C(=O)NCC(=O)N[C@@H](C)C(=O)N[C@@H](Cc4ccccc4)C(=O)N[C@@H](CCCNC(=N)N)C(=O)N[C@@H](CCCCN)C(=O)N2)NC(=O)[C@H](CSSC[C@@H](C(=O)N[C@@H](CCCCN)C(=O)N[C@@H](Cc2ccc(O)cc2)C(=O)N[C@H](C(=O)N[C@@H](Cc2ccccc2)C(N)=O)C(C)C)NC(=O)[C@H](Cc2c[nH]c4ccccc24)NC(=O)[C@H](Cc2cn(CCOCCOCCOCCOCCOCCOCCOCCOCCOCCOCCN)nn2)NC(=O)[C@H](Cc2c[nH]cn2)NC(=O)[C@H]([C@@H](C)O)NC(=O)[C@H](CCCNC(=N)N)NC(=O)[C@H](CO)NC3=O)NC(=O)[C@H](CCCCN)NC(=O)[C@H](CC(=O)O)NC(=O)[C@H](CC(N)=O)NC(=O)[C@H](CC(=O)O)NC(=O)[C@@H]2CCCN2C1=O [compound 576] | 1700 | 1700 | > 5000
6 | CC[C@H](C)[C@@H]1NC(=O)[C@@H]2CSSC[C@@H]3NC(=O)[C@H](C(C)C)NC(=O)[C@H](CC(C)C)NC(=O)[C@H](CC(N)=O)NC(=O)[C@@H]4CCCN4C(=O)[C@H](CCCNC(=N)N)NC(=O)[C@H](CSSC[C@H](NC(=O)[C@@H](N)CC(=O)O)C(=O)N[C@@H](CC(C)C)C(=O)NCC(=O)N[C@@H](Cc4ccccc4)C(=O)N[C@@H](Cc4ccccc4)C(=O)N[C@@H](CCCNC(=N)N)C(=O)N[C@@H](CCCCN)C(=O)N2)NC(=O)[C@H](CSSC[C@@H](C(=O)N[C@@H](CCCCN)C(=O)N[C@@H](Cc2ccc(O)cc2)C(=O)N[C@H](C(=O)N[C@@H](Cc2cccc4ccccc24)C(N)=O)C(C)C)NC(=O)[C@H](Cc2c[nH]c4ccccc24)NC(=O)[C@H](CCCCN)NC(=O)[C@H](Cc2c[nH]cn2)NC(=O)[C@H](Cc2cn(CCOCCOCCOCCOCCOCCOCCOCCOCCOCCOCCN)nn2)NC(=O)[C@H](CCCNC(=N)N)NC(=O)[C@H](CO)NC3=O)NC(=O)[C@H](CCCCN)NC(=O)[C@H](CC(=O)O)NC(=O)[C@H](CC(N)=O)NC(=O)[C@H](CC(=O)O)NC(=O)[C@@H]2CCCN2C1=O [compound 556] | 320 | 320 | > 5000
7 | CC(C)C[C@@H]1NC(=O)[C@@H](NC(=O)[C@@H](N)CC(=O)O)CSSC[C@@H]2NC(=O)[C@@H]3CSSC[C@@H](C(=O)N[C@@H](CCCCN)C(=O)N[C@@H](Cc4ccc(O)cc4)C(=O)N[C@H](C(=O)N[C@@H](Cc4ccccc4)C(N)=O)C(C)C)NC(=O)[C@H](Cc4c[nH]c5ccccc45)NC(=O)[C@H](CCCCN)NC(=O)[C@H](Cc4c[nH]cn4)NC(=O)[C@H]([C@@H](C)O)NC(=O)[C@H](CCCNC(=N)N)NC(=O)[C@H](CO)NC(=O)[C@H](CSSC[C@H](NC(=O)[C@H](CCCCN)NC(=O)[C@H](CCCNC(=N)N)NC(=O)[C@H](Cc4ccccc4)NC(=O)[C@H](C)NC(=O)CNC1=O)C(=O)N[C@@H](Cc1cn(CCOCCOCCOCCOCCOCCOCCOCCOCCOCCOCCN)nn1)C(=O)N1CCC[C@H]1C(=O)N[C@@H](CC(=O)O)C(=O)N[C@@H](CC(N)=O)C(=O)N[C@@H](CC(=O)O)C(=O)N[C@@H](CCCCN)C(=O)N3)NC(=O)[C@H](C(C)C)NC(=O)[C@H](CC(C)C)NC(=O)[C@H](CC(N)=O)NC(=O)[C@@H]1CCCN1C(=O)[C@H](CCCNC(=N)N)NC2=O [compound 568] | 76 | 260 | > 5000
8 | CC[C@H](C)[C@@H]1NC(=O)[C@@H]2CSSC[C@@H]3NC(=O)[C@H](C(C)C)NC(=O)[C@H](CC(C)C)NC(=O)[C@H](CC(N)=O)NC(=O)[C@@H]4CCCN4C(=O)[C@H](CCCNC(=N)N)NC(=O)[C@H](CSSC[C@H](NC(=O)[C@@H](N)CC(=O)O)C(=O)N[C@@H](CC(C)C)C(=O)NCC(=O)N[C@@H](C)C(=O)N[C@@H](Cc4ccccc4)C(=O)N[C@@H](CCCNC(=N)N)C(=O)N[C@@H](CCCCN)C(=O)N2)NC(=O)[C@H](CSSC[C@@H](C(=O)N[C@@H](CCCCN)C(=O)N[C@@H](Cc2ccc(O)cc2)C(=O)N[C@H](C(=O)N[C@@H](Cc2ccccc2)C(N)=O)C(C)C)NC(=O)[C@H](Cc2cn(CCOCCOCCOCCOCCOCCOCCOCCOCCOCCOCCN)nn2)NC(=O)[C@H](CCCCN)NC(=O)[C@H](Cc2c[nH]cn2)NC(=O)[C@H]([C@@H](C)O)NC(=O)[C@H](CCCNC(=N)N)NC(=O)[C@H](CO)NC3=O)NC(=O)[C@H](CCCCN)NC(=O)[C@H](CC(=O)O)NC(=O)[C@H](CC(N)=O)NC(=O)[C@H](CC(=O)O)NC(=O)[C@@H]2CCCN2C1=O [compound 577] | > 5000 | ≥ 5000 | > 5000
